The list shows a part of the results. Values come from read counts of a selection and are noisy. Scores sum up all selected molecules that hold the word; the word was not tested alone.
Tests used:
Assay in all cases: 6-mer SELEX enrichment z-score vs GST control; IMP3 is the RNA-binding protein IGF2BP3; higher = more enriched by binding
[1] = test system: IMP3 KH1-4; conditions: construct: KH1-4 (164-579); SELEX round: R4
Description: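 SELEX-seq with GST-tagged IMP3 KH1-4 (Pro164-Lys579) and an N40 RNA pool, round 4. 6-mer z-score of sequence-tag enrichment normalised to the corresponding GST SELEX round; RNA k-mers written as DNA (T for U).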

[2] = test system: IMP3 RRM1-2; conditions: construct: RRM1-2 (1-163); SELEX round: R2
Description: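 SELEX-seq with GST-tagged IMP3 RRM1-2 (Met1-Asn163) and an N40 RNA pool, round 2. 6-mer enrichment z-score normalised to GST SELEX. RNA written as DNA (T = U).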

[3] = molecular target: IMP3 full-length (UniProt O00425); conditions: construct: FL IMP3 (1-579); SELEX round: R4
Description: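 SELEX-seq with GST-tagged full-length IMP3 and an N40 RNA pool, round 4. Each 6-mer is scored as an enrichment z-score of sequence tags containing it, normalised to the matching GST SELEX round. RNA written as DNA (T = U).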

[4] = test system: IMP3 KH1-2; conditions: construct: KH1-2 (164-376); SELEX round: R4
Description: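 SELEX-seq with GST-tagged IMP3 KH1-2 (Pro164-Phe376) and an N40 RNA pool, round 4 (stringent 300/600 mM KCl washes). 6-mer z-score of sequence-tag enrichment normalised to the corresponding GST SELEX round; RNA k-mers written as DNA (T for U).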

[5] = test system: IMP3 KH3-4; conditions: construct: KH3-4 (377-579); SELEX round: R4
Description: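 SELEX-seq with GST-tagged IMP3 KH3-4 (Pro377-Lys579) and an N40 RNA pool, round 4. 6-mer z-score of sequence-tag enrichment normalised to the corresponding GST SELEX round; RNA k-mers written as DNA (T for U).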

Chain of IMP3 KH3-4 (chain, as listed by the source): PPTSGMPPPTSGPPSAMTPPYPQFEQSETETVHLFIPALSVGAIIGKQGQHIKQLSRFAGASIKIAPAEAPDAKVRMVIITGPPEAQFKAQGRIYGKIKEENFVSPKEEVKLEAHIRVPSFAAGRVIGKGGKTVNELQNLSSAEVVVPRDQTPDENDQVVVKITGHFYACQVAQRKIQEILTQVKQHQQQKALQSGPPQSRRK
Chain of IMP3 RRM1-2 (chain, as listed by the source): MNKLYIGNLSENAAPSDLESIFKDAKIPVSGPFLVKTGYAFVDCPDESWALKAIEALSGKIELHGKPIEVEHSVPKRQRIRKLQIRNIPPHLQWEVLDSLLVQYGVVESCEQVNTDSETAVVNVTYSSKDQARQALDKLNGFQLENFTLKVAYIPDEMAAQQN
Chain of UniProt O00425 (O00425 whole entry): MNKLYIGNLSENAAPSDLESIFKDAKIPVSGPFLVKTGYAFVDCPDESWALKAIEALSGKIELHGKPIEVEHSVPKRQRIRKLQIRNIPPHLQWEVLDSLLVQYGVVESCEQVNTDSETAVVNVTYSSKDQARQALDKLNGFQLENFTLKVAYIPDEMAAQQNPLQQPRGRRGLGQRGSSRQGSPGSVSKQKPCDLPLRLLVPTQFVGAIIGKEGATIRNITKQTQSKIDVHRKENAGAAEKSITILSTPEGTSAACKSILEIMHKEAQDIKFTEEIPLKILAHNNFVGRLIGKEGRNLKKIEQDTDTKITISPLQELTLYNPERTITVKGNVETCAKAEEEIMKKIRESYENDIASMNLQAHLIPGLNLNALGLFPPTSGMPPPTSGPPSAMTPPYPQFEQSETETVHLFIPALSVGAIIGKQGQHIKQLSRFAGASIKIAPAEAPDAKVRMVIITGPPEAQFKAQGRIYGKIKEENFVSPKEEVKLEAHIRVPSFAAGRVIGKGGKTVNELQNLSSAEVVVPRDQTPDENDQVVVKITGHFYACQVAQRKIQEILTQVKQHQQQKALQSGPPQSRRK
Chain of IMP3 KH1-4 (chain, as listed by the source): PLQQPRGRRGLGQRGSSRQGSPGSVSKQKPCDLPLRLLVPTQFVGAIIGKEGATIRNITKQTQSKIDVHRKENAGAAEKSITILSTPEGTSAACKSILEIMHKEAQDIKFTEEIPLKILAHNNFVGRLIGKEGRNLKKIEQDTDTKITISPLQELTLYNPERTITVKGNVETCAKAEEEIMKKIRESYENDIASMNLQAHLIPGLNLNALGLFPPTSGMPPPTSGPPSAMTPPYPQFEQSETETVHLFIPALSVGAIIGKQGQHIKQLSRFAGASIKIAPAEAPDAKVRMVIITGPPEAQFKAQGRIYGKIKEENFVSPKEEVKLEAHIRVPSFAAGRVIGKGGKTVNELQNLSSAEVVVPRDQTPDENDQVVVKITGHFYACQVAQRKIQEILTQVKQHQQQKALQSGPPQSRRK
Chain of IMP3 KH1-2 (chain, as listed by the source): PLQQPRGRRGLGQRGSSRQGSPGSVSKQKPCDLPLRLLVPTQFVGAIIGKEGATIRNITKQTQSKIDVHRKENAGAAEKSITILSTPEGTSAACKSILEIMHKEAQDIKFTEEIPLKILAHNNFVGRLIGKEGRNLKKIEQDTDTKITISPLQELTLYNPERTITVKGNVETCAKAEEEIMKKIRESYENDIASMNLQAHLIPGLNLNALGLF

Row | Sequence | 6-mer SELEX enrichment z-score [1] | 6-mer SELEX enrichment z-score [2] | 6-mer SELEX enrichment z-score [3] | 6-mer SELEX enrichment z-score [4] | 6-mer SELEX enrichment z-score [5]
1 | AATTTA | 1.51 | -0.395 | 0.072 | 1.42 | 2.73
2 | TCAATT | 1.13 | 0.881 | 0.956 | 1.1 | 1.24
3 | AGAAAG | 0.085 | -1.46 | -0.741 | -0.047 | 0.7
4 | GTCCTC | 0.051 | 0.089 | 0.093 | -0.061 | -0.312
5 | ATCGGC | 1.84 | 0.402 | 2.45 | 1.18 | 1.32
6 | GTAGGC | -0.037 | 0.228 | 0.378 | -0.031 | 0.096
7 | TTTTGA | -0.055 | -0.01 | -0.401 | -0.089 | 0.373
8 | CTTGGT | -0.277 | 0.62 | 0.22 | -0.118 | -0.101
9 | ACAACG | -0.281 | -0.268 | 0.199 | -0.353 | -0.522
10 | ATTAAC | 1.45 | -0.158 | -0.064 | 1.5 | 2.28
11 | TTGACC | -0.806 | -0.61 | -1.04 | -0.897 | -1.04
12 | GGCGTA | -1.92 | 0.017 | -0.713 | -1.76 | -1.56
13 | TGTTCG | -0.098 | 0.331 | -0.081 | -0.136 | -0.081
14 | AGGCAG | 1.03 | 0.343 | 1.54 | 0.783 | 0.981
15 | AAGGCT | -0.086 | 0.07 | 0.127 | -0.02 | 0.323
16 | CACCCG | -1.23 | -0.702 | -0.816 | -1.24 | -1.86
17 | TCTTAT | 0.675 | 0.497 | 0.306 | 0.582 | 0.745
18 | GTACTA | -0.312 | -0.12 | -0.21 | -0.31 | -0.237
19 | GGCCAT | 0.989 | 0.375 | 1.1 | 0.694 | 1.05
20 | CATGCT | 0.405 | 0.529 | 0.496 | 0.398 | 0.229
